ChEMBL document CHEMBL4888484, “Replenishing the malaria drug discovery pipeline: Screening and hit evaluation of the MMV Hit Generation Library 1 (HGL1) against asexual blood stage Plasmodium falciparum ,using a nano luciferase reporter read-out” (2022)
About 540 (0.36%) of roughly 150,000 compounds showed an effect of 50% or more. The list shows a part of the results.

What follows are molecules tested on Plasmodium falciparum (assay: Primary screen in NF54 nanoGlo assay, in single point, at 2uM, 72h; a lower Z score goes with more inhibition). Settings: timepoint 72 hour.
Type: functional, Erythrocyte
CN1CCN(C(=O)CCNC(=O)N2CCC[C@H]2c2ccc(F)c(F)c2)CC1 was tested, and the “% Inhibition” value was -9% and the Z score was 1.43.
CCOc1cccc2c1OCC(C(=O)n1c(N)nnc1N1CCCCC1)=C2 was tested, and the “% Inhibition” value was -2% and the Z score was 0.28.
CCC(C)(C)NC(=O)Cc1cccs1 was tested, and the “% Inhibition” value was -7% and the Z score was 1.38.
With CN1C(=O)[C@@H]2CCCCN2c2ccc(C(=O)N3CCN(c4ccc(Cl)cc4)CC3)cc21 the “% Inhibition” value was 11% and the Z score was -1.61.
In the case of O=C(COc1ccc(F)c(F)c1)N1CCO[C@@H](Cn2cccn2)C1, the “% Inhibition” value is reported as -10% and the Z score is reported as 2.12.
In the case of COc1ccc(COc2c(C)nn(C)c2C)cc1F, the “% Inhibition” value is reported as -6% and the Z score is reported as 0.96.
With COc1ccc(CNC(C)(C)CC(C)(C)C)cc1OC the “% Inhibition” value was -9% and the Z score was 1.4.
For Cc1nc([C@@H]2CCCN2C(=O)c2ccnn2-c2ccccc2)cs1, the “% Inhibition” value was 13% and the Z score was -1.5.
In the case of Cc1c(C(=O)N[C@@H]2COCC[C@@H]2OCC(N)=O)n(C)c2c(C)cccc12, the “% Inhibition” value is reported as 10% and the Z score is reported as -1.19.
For Cc1nonc1NC(=O)CN1C(=O)c2ccccc2C1=O, the “% Inhibition” value was -14% and the Z score was 2.55.
CC(C)c1nc(COC(=O)c2cc(Cl)c[nH]2)cs1 was tested, and the “% Inhibition” value was 0% and the Z score was 0.04.
For CC(CC(=O)N1CCOCC1)NC1CCN(c2ccc(Cl)c(F)c2)C1=O (stereo not given), the “% Inhibition” value was -21% and the Z score was 2.26.
CCN(CC)C(=O)c1ccc(COc2ccc3c(c2)[C@H](c2ccc(F)cc2)N(C(=O)C(C)C)CC3)o1 was tested, and the “% Inhibition” value was -17% and the Z score was 2.65.
In the case of COc1ccc([C@H](C)NCCc2cn(C)cn2)cc1, the “% Inhibition” value is reported as -7% and the Z score is reported as 1.22.
With O=C1C[C@@H](c2ccsc2)c2ncn(-c3cc(F)cc(F)c3)c2N1 the “% Inhibition” value was -1% and the Z score was 0.11.
In the case of Cc1cccc([C@H]2CCCN(C(=O)NCCc3nccs3)C2)c1, the “% Inhibition” value is reported as -4% and the Z score is reported as 0.84.
O=C(NCCc1ccco1)c1ccc(Oc2ccc(C(F)(F)F)cn2)cc1 was tested, and the “% Inhibition” value was -15% and the Z score was 2.75.
CCc1ccc(C(=O)N2CCNC(=O)C2)o1 was tested, and the “% Inhibition” value was -11% and the Z score was 1.03.
CC[C@H](CO)NC(=O)Nc1ccc(C(C)=O)c(Cl)c1 was tested, and the “% Inhibition” value was -16% and the Z score was 1.34.
For CC(=O)N(CCN1CCCCC1)[C@H]1CCCN(Cc2ccccc2C(F)(F)F)C1, the “% Inhibition” value was -7% and the Z score was 0.97.
In the case of Cc1nc([C@H]2CCCN2S(=O)(=O)c2c(C(F)F)c(C)nn2C)cs1, the “% Inhibition” value is reported as -7% and the Z score is reported as 0.82.
With CC[C@H](C)NC(=O)c1cc(C)ccc1O the “% Inhibition” value was -1% and the Z score was 0.11.
CC(=O)N1CCN(Cc2nc(C3CCCC3)no2)CC12CCCCC2 was tested, and the “% Inhibition” value was -2% and the Z score was 0.34.
COc1ccc(-c2nc(CC(C)C)nn2-c2ccccn2)cc1O was tested, and the “% Inhibition” value was 2% and the Z score was -0.37.
For COc1cccc(CN2CCC[C@H](c3cc4n(n3)CCCN(C)C4=O)C2)n1, the “% Inhibition” value was -4% and the Z score was 0.72.
For O=C(c1ccco1)N1CCN(C(=O)[C@H]2CCCN(c3c(-c4ccccc4)c4cc(Cl)ccc4[nH]c3=O)C2)CC1, the “% Inhibition” value was -34% and the Z score was 4.95.
O=C(CCc1c[nH]c2ccccc12)Nc1nc(C2CC2)n[nH]1 was tested, and the “% Inhibition” value was 1% and the Z score was -0.14.
For O=C(CC1(O)CCCCC1)Nc1nnc(Cc2ccsc2)s1, the “% Inhibition” value was -5% and the Z score was 0.86.
In the case of CCC(CC)n1nc(C(=O)N[C@H]2CCN(CC(F)F)C2)cc1C, the “% Inhibition” value is reported as -11% and the Z score is reported as 1.47.
For CC1CCCN(C(=O)Nc2ccc(N3CC(C)OC(C)C3)cc2)C1 (stereo not given), the “% Inhibition” value was 3% and the Z score was -0.4.
For C[C@H]1COCCN1Cc1noc(-c2ccco2)n1, the “% Inhibition” value was -15% and the Z score was 1.72.
With CN(CCCNC(=O)Nc1cccc2[nH]ncc12)C1CCCC1 the “% Inhibition” value was 4% and the Z score was -0.48.
In the case of CN1CCN(CC2(CNc3ccc(C(N)=O)cn3)CC2)CC1, the “% Inhibition” value is reported as 3% and the Z score is reported as -0.37.
For CC(=O)NCCCC(=O)NCCCn1ccnc1, the “% Inhibition” value was 5% and the Z score was -1.01.
For COc1ccc(Oc2ncc(-c3ccc(C(=O)Nc4cc(C)cc(C)c4)cc3)cn2)cc1, the “% Inhibition” value was -5% and the Z score was 0.85.
Cc1ccoc1C(=O)Nc1ncccc1N1CCCCC1 was tested, and the “% Inhibition” value was 8% and the Z score was -0.8.
C[C@@H](C(=O)Nc1nc(C(N)=O)cs1)N(C)CC(F)(F)F was tested, and the “% Inhibition” value was -7% and the Z score was 1.15.
O=C(c1nn(Cc2ccccc2)c(=O)c2ccccc12)N1CCC[C@H]1c1ccc(O)cc1 was tested, and the “% Inhibition” value was 8% and the Z score was -1.33.
With COC(=O)c1cccc(C(=O)N2CCc3ccccc32)n1 the “% Inhibition” value was -13% and the Z score was 1.91.
With Cc1ccc(-c2nc(C#N)c(S(=O)(=O)N3CCCC[C@@H]3C)o2)cc1 the “% Inhibition” value was -13% and the Z score was 1.76.
In the case of Clc1cccc2c1Oc1cccc3c1N2CCC3, the “% Inhibition” value is reported as 3% and the Z score is reported as -0.34.
Cc1ccc(C(=O)N(C)C2CCCC2O)s1 (stereo not given) was tested, and the “% Inhibition” value was -19% and the Z score was 2.45.
With O=C(Nc1ccc2c(c1)OCCO2)c1ccc(-n2nc(OCc3ccc(Cl)cc3)ccc2=O)cc1 the “% Inhibition” value was -1% and the Z score was 0.14.
CC1(C)CCc2nnc(C(=O)N3CCCC3)n2C1 was tested, and the “% Inhibition” value was -21% and the Z score was 2.67.
With COCc1nc(CCc2ccncc2)n(CC(C)(C)O)n1 the “% Inhibition” value was -10% and the Z score was 2.05.
For c1ccc2c(c1)CC(n1nc([C@H]3CCOC3)nc1-c1cnc[nH]1)C2, the “% Inhibition” value was -13% and the Z score was 1.59.
CCCc1nc(CNc2ccc(C)c(N3CCOC3=O)c2)cs1 was tested, and the “% Inhibition” value was 2% and the Z score was -0.29.
O=C(NCc1nccc(N2CCCC2)n1)C1CCCCC1 was tested, and the “% Inhibition” value was -1% and the Z score was 0.22.
For Cc1cnc(C2CC2)n1CC1CCN(C(=O)[C@H]2CCOC2)CC1, the “% Inhibition” value was -2% and the Z score was 0.24.
With Cc1cccc(C(=O)N2CCCCC[C@H]2c2nc(C)no2)c1 the “% Inhibition” value was -10% and the Z score was 2.01.
For CN1CCC(CCNC(=O)c2cc(-c3ccccc3)nc3ncnn23)CC1, the “% Inhibition” value was -34% and the Z score was 3.96.
In the case of COc1ccc(C(=O)N[C@@H]2CCC[C@@H]2C(=O)N2CCN(c3ccccn3)CC2)cc1, the “% Inhibition” value is reported as 2% and the Z score is reported as -0.22.
With COCCCN(C(=O)c1ccc(-c2ccccc2C)nc1N(C)C)C1CCN(C)CC1 the “% Inhibition” value was 1% and the Z score was -0.1.
With CC1(C)CCC[C@H](C(=O)NCc2nc(C(F)(F)F)cs2)C1 the “% Inhibition” value was -7% and the Z score was 1.24.
Cc1cc(S(=O)(=O)N2CC(N(CC(C)C)C3CCOCC3)C2)ccc1F was tested, and the “% Inhibition” value was 8% and the Z score was -1.51.
For CCOC(=O)Nc1nc2c(s1)CNCC2, the “% Inhibition” value was 19% and the Z score was -2.47.
COc1ccc(CNS(=O)(=O)c2c(C)noc2C)cn1 was tested, and the “% Inhibition” value was -8% and the Z score was 0.7.
In the case of C#CCOC[C@@H](O)CN(Cc1cc(OC)cc(OC)c1)C(C)C, the “% Inhibition” value is reported as -12% and the Z score is reported as 1.62.
In the case of O=C(Nc1cccc(Cc2ccccc2)c1)N1CC(N2CCOCC2)C1, the “% Inhibition” value is reported as 2% and the Z score is reported as -0.22.
With CCn1ccnc1CN1CCCC12CCN(c1ccc3ncccc3c1)CC2 the “% Inhibition” value was -8% and the Z score was 0.77.
For Cc1cc(CN(C)C(=O)NC2CCCCCCC2)n[nH]1, the “% Inhibition” value was 7% and the Z score was -0.96.
With CC(C)c1ocnc1C(=O)N(CC(F)F)c1cccc(Cl)c1 the “% Inhibition” value was 30% and the Z score was -3.36.
For CN(Cc1ccncn1)Cc1cc(Cl)ccc1OC[C@@H](O)CN1CCCCCC1, the “% Inhibition” value was 1% and the Z score was -0.18.
With NC(=O)C(=O)N1CCC[C@@]2(CCC(=O)N(Cc3ccccc3)C2)C1 the “% Inhibition” value was -1% and the Z score was 0.12.
With Cc1ccc(-n2nc(N3CCCN(C(=O)c4cccc(C)c4)CC3)ccc2=O)cc1 the “% Inhibition” value was 9% and the Z score was -1.07.
With CC(C)(C)c1nc2ccc(NC(=O)c3nc(=O)[nH][nH]3)cc2s1 the “% Inhibition” value was -12% and the Z score was 1.22.
In the case of COc1ccc(S(=O)(=O)N2CC(C(=O)N3CCCC3)C(c3cc(OC)ccc3OC)C2)cc1 (stereo not given), the “% Inhibition” value is reported as -17% and the Z score is reported as 1.58.
With O=C1c2ccccc2N[C@H](c2ccoc2)N1O the “% Inhibition” value was -46% and the Z score was 5.45.
With COC(C)(C(=O)N1CCC(CNC(C)=O)C1)c1ccccc1F (stereo not given) the “% Inhibition” value was 4% and the Z score was -0.73.
For COCCc1nc(CC(F)(F)F)n(-c2ccc(S(N)(=O)=O)cc2)n1, the “% Inhibition” value was 0% and the Z score was -0.03.
With C[C@H](NC(=O)OC(C)(C)C)c1noc(Cc2ccn[nH]2)n1 the “% Inhibition” value was 2% and the Z score was -0.3.
O=C(c1cccc[n+]1[O-])N1CCc2[nH]c3c(Br)cccc3c2C1 was tested, and the “% Inhibition” value was 12% and the Z score was -1.42.
O=C(NCC1CCC=CCC1)Nc1nnc(C2CCOCC2)s1 was tested, and the “% Inhibition” value was -4% and the Z score was 0.52.
In the case of CCc1nc(CNC(=O)N2CCO[C@H](c3ccnn3C)C2)co1, the “% Inhibition” value is reported as 5% and the Z score is reported as -0.72.
With CC(C)C(=O)N(CCCN1CCCC1)[C@H]1CCN(S(=O)(=O)c2ccc(F)c(F)c2)C1 the “% Inhibition” value was 0% and the Z score was -0.06.
O=C([C@@H]1CC=CCC1)N1CCC(N2C(=O)COCC2=O)CC1 was tested, and the “% Inhibition” value was 12% and the Z score was -1.62.
With O=C1O[C@H]2CN(Cc3c(F)ccc(F)c3F)C[C@H]2N1Cc1ccccn1 the “% Inhibition” value was -1% and the Z score was 0.16.
With CCCc1ccc(O[C@@H](C)c2nc(-c3nonc3N)no2)cc1 the “% Inhibition” value was -13% and the Z score was 1.72.
In the case of O=C([C@H]1CCc2nncn2C1)N1CCc2c(Cl)cc(F)cc2C1, the “% Inhibition” value is reported as -3% and the Z score is reported as 0.62.
In the case of O=C(c1ccc(Cl)s1)N1CC(Oc2nc3ccccc3s2)C1, the “% Inhibition” value is reported as -12% and the Z score is reported as 1.32.
CCc1ccc(-c2c(-c3ccccc3)ncn2Cc2cc(O)nc(C)n2)nc1 was tested, and the “% Inhibition” value was -2% and the Z score was 0.38.
Cc1nc(CCN2C(=O)NC(C)(C)C2=O)sc1C was tested, and the “% Inhibition” value was 2% and the Z score was -0.26.
For COc1cc2c(cc1CN1CCNC(=O)[C@@H]1Cc1ccccc1)OCO2, the “% Inhibition” value was 8% and the Z score was -1.04.
For CC(C)n1ccc(CN2c3cc(Cl)ccc3CS2(=O)=O)n1, the “% Inhibition” value was -1% and the Z score was 0.17.
In the case of O=C(CCn1cc(Cl)cn1)N1CCN(CC2CC2)[C@@H]2CS(=O)(=O)C[C@@H]21, the “% Inhibition” value is reported as -12% and the Z score is reported as 1.13.
